Experimental findings from paper doi:10.1101/2020.07.27.219618, “Weak catch bonds make strong networks” (bioRxiv, 2020) are described below.

The target in this assay is Actin filaments (actin purified from rabbit psoas skeletal muscle) (rabbit, UniProt P68135). Put plainly: co-sedimentation; G-actin at 6 increasing concentrations co-polymerized with 0.1 μM crosslinker in F-buffer for 2 h at room temperature (legend: 25 °C), spun at 120 000 g; unbound crosslinker in the supernatant quantified by SDS-PAGE; fraction bound fitted against actin concentration. The settings on record: both partners purified.

B1: Human α-actinin-4 K255E point mutant (natural protein)
chain: not shown
notes: α-actinin-4, human, with the disease-associated point mutation K255E (focal segmental glomerulosclerosis type 1); also called K255E mutant; slip bond crosslinker; source: E. coli, purified (nickel column, gel filtration)
Turning to B1, the Ka came out at 1.56e+07 M⁻¹.
